# Experimental data taken from the supplement of paper PMC8728848.
# The list shows a part of the results.
# B1: a L Fucosidase (Streptosporangium roseum), D2B1P1_STRRD (protein)
# chain: MRRKLLLVPAVGLLVIGSIFATQPVASADTPPVYEPTVESLNSHPVPQWFNDDKFGIFIHWGAYSVPAWGPRGSYAEWYGNYMNAGGSATNAHHKATYGQDFNYDAFLQQWKAEKFDPADWVKLFKDAGAKYFVLTSKHHEGMALWDSKSSGRDSVDLGPGRDLAKELFDAARKDEAKLKAGFYYSLYEWYNPAYTGRPATNPYTGAEIPYTGAPGGGDYVKDYMLPQMRELIDGYDPDIIWCDGQWEKPASYWNTAGVIADYYNKALNSGKEVAVANRCKIQSGNLDSPELDFQTPEYTVKPDIDPVKWESSRGIAHSYGYNQNEPEEDHLTSDQLVDSLVDIVSKNGNLLLDIGPKADGTIPEIQRQRLLDIGAWLKANGEAIYGTTYWNRAEEKGGPDDVRYTAKDATLYATALKWPGEQLTLGADLPVDHSTRITMLGSGARLSWSRDEQGRVVVNTPQEAGKHAYVFKIETPGVRSLLRTSSSLAKEIAPGRTISGELTVTNPGKRHTPATKLSLTVPQGWTATLGAPRVRPLGPGESVKVPISVSAPEGVAPAPYTLGLYQRTGRMGTTTALPLTVNRPNLSLGKPATQKSTGYDAPASRAVDGNTGGDWSAGSTTHTAEPEKQAWWQVDLGASARLDSVDVWNRLDCCADRLKDFWVMASDQPFTTDDLDQARTAPGVTAVHVGEQAGSPSKVKLPEGTRGRYVRIQLASPSNPLSLAEVQVRGSMARPNLSLGKPATQKSTGYDAPASRAVDGNTGGDWSAGSTTHTAEPEKQAWWQVDLGASARLDSVDVWNRLDCCADRLKDFWVMASDQPFTTDDLDQARTAPGVTAVHVGEQAGSPSKVKLPEGTRGRYVRIQLASPSNPLSLAEVQVRLEHHHHHHS
# Assays:
# [1] = target: Neu5Gc(a2-8)Neu5Gc(a2-6)Gal(b1-4)GlcNAc; test: glycan array binding signal (z-score within array); higher = stronger binding; settings: glycan notation: IUPAC condensed, linker removed
# Summary of the method: (§1)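 Columns mapping to the same glycan were averaged after glycan names were converted to IUPAC-condensed notation. The data come from 3228 arrays in the Consortium for Functional Glycomics database, limited to those with an available protein sequence. Binding is reported as a within-array Z-score averaged across arrays of one protein sequence and across linkers.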
# [2] = target: Neu5Gc(b2-6)Gal(b1-4)GlcNAc; test: as above; settings: glycan notation: IUPAC condensed, linker removed
# Summary of the method: as §1
binder,measurement,setting,value
B1,glycan array binding signal (z-score),[1],-0.112
same,glycan array binding signal (z-score),[2],-0.474
